Reference: the supplement of paper PMC9334596
Values joined by “and” are separate entries in the source; they are usually repeats but may differ in a detail not shown here. Identical values can stand only once. The full ranking holds about 5,300 compounds; the median of “PER2::LUC luminescence relative to vehicle control” is about 0.96, and the highest 2% start at about 1.3. Some of the results follow.

Test system: mPer2Luc MEF
Assay: PER2::LUC luminescence relative to vehicle control (fold of vehicle); higher = higher PER2::LUC reporter signal
Settings: 10 µM
Outline: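 In 384-well plates, ~3000 mPer2Luc reporter mouse embryonic fibroblasts per well were cultured in DMEM with 10% FBS at 37 °C and 5% CO2 for 48 h before compounds from commercial libraries were added at 10 μM. ONE-Glo luciferase readings were taken 24 h and 30 h after treatment. Each value is PER2::LUC luminescence given as fold of vehicle control.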

| Structure (SMILES) | PER2::LUC luminescence (time after treatment 24 h) | PER2::LUC luminescence (time after treatment 30 h) |
| --- | --- | --- |
| CN(C)CCCN1c2ccccc2Sc2ccccc21 | 0.652 | 0.651 |
| O=C(O)COc1ccc(OCCNC[C@H](O)COc2ccccc2)cc1 | 0.9 | 1.02 |
| C=CC(C1=CC(=O)C=CC1=O)c1ccccc1 (stereo not drawn) | 1.07 | 1.03 |
| O=C[C@H](O)[C@@H](O)[C@H](O)CO | 0.961 | 0.908 |
| O=C1OC2(c3ccccc31)c1cc(I)c(O)c(I)c1Oc1c2cc(I)c(O)c1I | 1.04 | 0.836 |
| O=C(/C=C/c1ccc2ccccc2n1)c1ccncc1 | 0.925 | 0.864 |
| CC(=O)Nc1ccccc1 | 0.881 | 1.21 |
| Cc1cc(C(N)=O)ccc1-n1c(CCC(=O)O)ccc1-c1ccc(-n2ccnc2)cc1 | 1 | 0.98 |
| COC(=O)[C@H]1[C@H]2C[C@H]3c4[nH]c5ccccc5c4CCN3C[C@@H]2CC[C@@H]1O | 0.975 and 0.889 | 0.934 and 0.896 |
| COc1cc(O)c2c(c1)oc(=O)c1c3cc(O)c(O)cc3oc21 | 1.05 | 0.927 |
| C[C@H]1COc2c(C3(N)CC3)c(F)cc3c(=O)c(C(=O)O)cn1c23 | 1.33 and 0.829 | 1.15 and 0.705 |
| CC(C(=O)O)c1ccc2c(c1)Cc1cccnc1O2 (stereo not drawn) | 0.944 | 0.933 |
| CC(C)(C)C(=O)Oc1ccc(S(=O)(=O)Nc2ccccc2C(=O)NCC(=O)O)cc1 | 1.15 | 1 |
| CSc1ccc2c(c1)C(N1CCN(C)CC1)Cc1ccccc1S2 (stereo not drawn) | 0.759 and 0.696 and 0.536 | 0.758 and 0.749 and 0.481 |
| Clc1ccc(NN=C(c2ccccc2)c2ccccn2)nc1 | 0.769 | 0.719 |
| O=C(O)CC1CCC(c2ccc(-c3ccc4nc(C(=O)NCc5ccc(OC(F)(F)F)cc5)cn4c3)cc2)CC1 (stereo not drawn) | 1 | 1.1 |
| C[N+]1(C)[C@@H]2C[C@@H](OC(=O)C(O)(c3cccs3)c3cccs3)C[C@H]1[C@@H]1O[C@@H]12 | 1.04 | 1.04 |
| Cc1ccccc1-c1cc(N2CCN(C)CC2)ncc1N(C)C(=O)C(C)(C)c1cc(C(F)(F)F)cc(C(F)(F)F)c1 | 1.05 | 0.981 |
| C[N+]1(C)[C@@H]2CC[C@H]1C[C@@H](OC(=O)C(O)c1ccccc1)C2 (stereo partly drawn) | 0.967 | 1.18 |
| Cc1ccc(O)c(N=Nc2ccccc2)n1 | 1.05 | 0.998 |
| Cc1c(C)c2c(c(C)c1O)CCC(C)(COc1ccc(CC3SC(=O)NC3=O)cc1)O2 (stereo not drawn) | 1.04 | 1.04 |
| C[C@]1(OC(=O)/C=C/c2ccccc2)C[C@@H](O)[C@]2(O)C=CO[C@@H](O[C@@H]3O[C@H](CO)[C@@H](O)[C@H](O)[C@H]3O)[C@@H]21 | 1.04 | 1.05 |
| COc1ccc2c(c1)OC/C(=C\c1ccc(OC)c(O)c1)C2=O | 0.879 | 0.794 |
| O=S(=O)(c1ccc(Cl)cc1)N1CCN(c2ccnc3cc(Cl)ccc23)CC1 | 1.27 | 1.1 |
| COC(=O)C1=C(C)NC(C)=C(C(=O)OCCN2CCN(C(c3ccccc3)c3ccccc3)CC2)C1c1cccc([N+](=O)[O-])c1 (stereo not drawn) | 0.986 and 1.03 and 1.09 | 1.07 and 0.984 and 1.24 |
| CC(C)N(C[C@H]1O[C@@H](n2cnc3c(N)ncnc32)[C@H](O)[C@@H]1O)[C@H]1C[C@@H](CCc2nc3cc(C(C)(C)C)ccc3[nH]2)C1 | 1.05 | 1.04 |
| COC(c1ccccc1)(c1ccccc1)[C@H](Oc1nc(C)cc(C)n1)C(=O)O | 0.919 | 1.11 |

| Structure (SMILES) | PER2::LUC luminescence (time after treatment 24 h) | PER2::LUC luminescence (time after treatment 30 h) |
| --- | --- | --- |
| O=C(O)c1cc(=O)cc(C(=O)O)[nH]1 | 0.966 | 0.958 |
| Cc1nc(C#Cc2cccnc2)cs1 | 1.15 | 1.26 |
| OC[C@H]1O[C@H](O[C@]2(CCl)O[C@H](CCl)[C@@H](O)[C@@H]2O)[C@H](O)[C@@H](O)[C@H]1Cl | 0.999 | 1.07 |
| CNC(=O)c1cc(Oc2ccc(NC(=O)Nc3cc(C(C)(C)C)nn3-c3ccc4ncccc4c3)c(F)c2)ccn1 | 1.11 | 0.53 |
| CCOC(=O)C1(CCCCCCOc2ccc(Cl)cc2)CO1 (stereo not drawn) | 0.887 | 0.806 |
| COc1ccc2c(c1)c(CC(=O)O)c(C)n2C(=O)c1ccc(Cl)cc1 | 1.03 and 0.97 | 0.935 and 0.986 |
| C/C1=C/CCC(C)(O)/C=C\C(C(C)C)C(OC(=O)c2ccc(O)cc2)C1 (stereo not drawn) | 1.06 | 1.07 |
| CN1CCC(=C2c3ccccc3CCc3cccnc32)CC1 | 0.974 and 0.872 | 0.896 and 0.655 |
| Nc1nc2ccc(OC(F)(F)F)cc2s1 | 1.26 and 0.999 | 1.5 and 1.06 |
| Oc1cc(O)c2c(c1)O[C@H](c1ccc(O)c(O)c1)[C@H](O)C2 | 0.958 and 1.06 | 0.909 and 1.2 |
| C(=C\c1ccccc1)/CN1CCN(C(c2ccccc2)c2ccccc2)CC1 | 1.1 and 0.959 | 1.01 and 0.887 |
| COc1ccc(-c2cc(=O)c3c(O)c(OC)c(O[C@@H]4O[C@H](CO[C@@H]5O[C@@H](C)[C@H](O)[C@@H](O)[C@H]5O)[C@@H](O)[C@H](O)[C@H]4O)cc3o2)cc1 | 0.951 | 1.02 |
| CCCCCCCCOC(=O)C=Cc1ccc(OC)cc1 | 1.04 | 1.09 |
| O=C(C1CCCCC1)N1CC(=O)N2CCc3ccccc3C2C1 (stereo not drawn) | 1.2 | 0.952 |
| O=C(Nc1ccc(C(F)(F)F)cn1)c1cccc2cccnc12 | 1.02 | 1.03 |
| C[C@@H]1CCO[C@H]2Cn3cc(C(=O)NCc4ccc(F)cc4F)c(=O)c(O)c3C(=O)N12 | 1.35 and 1.15 | 1.4 and 1.2 |
| NCC(O)COc1cccc2ccccc12 (stereo not drawn) | 0.637 | 0.588 |
| C[C@]1(O)C[C@@H](c2nc(-c3ccc4ccc(-c5ccccc5)nc4c3)c3c(N)nccn32)C1 | 0.417 | 0.497 |
| CC(C)=CCc1c(O)ccc(C(=O)/C=C/c2ccc(O)cc2)c1O | 0.904 | 0.903 |
| O=C(O)c1cc(/N=N/c2ccc(O)c(C(=O)O)c2)ccc1O | 0.791 and 0.979 | 0.974 and 0.725 |
| CCCCCCCCCCCCCCCC(=O)OC(CC(=O)O)C[N+](C)(C)C (racemic) | 0.768 | 1.19 |
| COc1ccc2c(c1OC)C(=O)O[C@@H]2[C@H]1c2c(cc3c(c2OC)OCO3)CCN1C | 0.864 | 0.919 |
| COc1ccc2c(c1OC)C(=O)O[C@@H]2[C@H]1c2c(cc3c(c2OC)OCO3)CCN1C (racemic) | 0.87 | 0.844 |
| CCc1c(C(=O)NNC(=O)[C@@H](O)c2cc(F)cc(F)c2)ccc(O)c1C | 1.02 | 1.09 |
| CC(=O)NCCCS(=O)(=O)O | 0.808 | 1.2 |
| CN1CCN(C2CCC(n3cc(-c4ccc(Oc5ccccc5)cc4)c4c(N)ncnc43)CC2)CC1 (stereo not drawn) | 0.091 | 0.137 |
| CCCC(CCC)C(=O)Nc1ccn([C@@H]2O[C@H](CO)[C@@H](O)C2(F)F)c(=O)n1 | 0.881 | 0.735 |
